Experimental data taken from the RNAGym collection of RNA variant scans (doi:10.1073/pnas.2313332121).
Variants at the floor of the assay are shown more often than the library holds them.

B1: TPR 5TU (parent)
chain: GGAUCUUCUCGAUCUAACAAAAAAGACAAAUCUGCCACAAAGCUUGAGAGCAUCUUCGGAUGCAGAGGCGGCAGCCUUCGGUGGCGCGAUAGCGCCAACGUUCUCAACUAUGACACGCAAAACGCGUGCUCCGUUGAAUGGAGUUUAUCAUG

Variants of: B1
Test: polymerase ribozyme fitness, log enrichment relative to wild type (log ratio); higher = more active; in vitro selection for triplet polymerase activity
Outline: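 To select mutant libraries of each subunit of a heterodimeric triplet polymerase ribozyme, built by PCR and transcribed, each was annealed with a biotinylated primer, partner subunit and triplets, then incubated frozen at −7 °C. Extended constructs were gel-excised, captured on streptavidin beads and amplified by RT-PCR, in one round carried out in triplicate. Illumina sequencing of input and output libraries kept genotypes with ≥10 input reads and ≥1 read per output. Fitness is the base-2 logarithm of genotype enrichment relative to wild-type enrichment, from inverse-variance-weighted replicate averages.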

Variant	polymerase ribozyme fitness (log ratio)
A30U C36U G80U C87A A91U C116G	≤ -4.2
A30U C38U	-3.76
A30U C43U G59A U77C U109G	≤ -4.2
A30U C51A A52U C57A A97C C103U A120G U144A	≤ -4.2
A30U C51A A73G	≤ -4.2
A30U C54A A97U C116U G117U	≤ -4.2
A30U C54A C76A C87G G92A G143C	≤ -4.2
A30U C57A A73G G81C G92U G141A U148A	≤ -4.2
A30U C57U G92U A137U A142U	≤ -4.2
A30U C69U C75G C99A	≤ -4.2
A30U C76A	-3.82
A30U C87U C93G U104G	≤ -4.2
A30U C95U	-3.31
A30U G34U C85A G136U	≤ -4.2
A30U G50A A52C G80C G94U C118G A121U C123A	≤ -4.2
A30U G50C C57U G67A G68C C93U A106U G126A	≤ -4.2
A30U G65U A73U G92U C96U C103U G140U	≤ -4.2
A30U G68U C76A A91C	≤ -4.2
A30U G81C A107G	≤ -4.2
A30U G83U G141U	-3.89
A30U G86A	-3.95

Variant	polymerase ribozyme fitness (log ratio)
A30U U44A A52C C76G G80C C87U	≤ -4.2
A30U U53C C79U C85U G92A G143A	≤ -4.2
A30U U56A G62A G74C C87G U144C	≤ -4.2
A30U U61G G68A C93U C103G A147C	≤ -4.2
U31A A39U C93G C95U C99U A107G A113U C132U U135C A138G	≤ -4.2
U31A A40U C85G A106G G140A C149A	≤ -4.2
U31A A41G A47C A49C U77C U78A C87A C103G C108U U134C U151G	≤ -4.2
U31A A49G C105U	-0.707
U31A A52G G84U	-0.528
U31A A91C C116A	-3.88
U31A C32A G84C A107U G133U G141A	≤ -4.2
U31A C32U A39C C85A C114U A150C	≤ -4.2
U31A C35A C43A C57U A147G U148A	≤ -4.2
U31A C35U A49C U53A U78G C93A G140C A150U	≤ -4.2
U31A C36G G50U G83C U102C	≤ -4.2
U31A C36U A91G G92A U104A C123A C149G	≤ -4.2
U31A C36U C43A C63A A91U U104G	≤ -4.2
U31A C43A G83A C99A	≤ -4.2
U31A C43U A73G C87G A122U	≤ -4.2
U31A C57U C87U A89G G117A	-3.86
U31A C85A	-0.724

Variant	polymerase ribozyme fitness (log ratio)
U31A C87G C114A	-4.03
U31A C93A A115C	-1.71
U31A C96U A115C U146C	-0.845
U31A C125A	0.0765
U31A C131A	-1.89
U31A G34U A39U U55G G84U C96A A98U	≤ -4.2
U31A G50C U78G G94U C99G U148A	≤ -4.2
U31A G58C C75A C103U U109A A110G	≤ -4.2
U31A G59C C75U A91U U109G G112A	≤ -4.2
U31A G81A G92A A110U C149G	≤ -4.2
U31A G81U G83U C95U C105A C129A U148G	≤ -4.2
U31A G94U C116U G143A A150U	≤ -4.2
U31A U44G A49U G80C G84A G92U G117U A120U G126A U135A	≤ -4.2
U31A U45A C76U C85U C93U G136U A150C	≤ -4.2
U31A U53A C95U A119G	-0.866
U31A U56A U127C	-1.37
U31A U90G	≤ -4.2
U31A U144A	0.137
U31C A37U U82G C85U G94C U148A U151C	≤ -4.2
U31C A39C A49G G50C C76G A89U A98G G124C	≤ -4.2
U31C A39G G42C G92A G141U	≤ -4.2

Variant	polymerase ribozyme fitness (log ratio)
U31C A40G A41C G59A C93U C99A G100U U101G G124C C125U G141C U146A	≤ -4.2
U31C A40U U44A A47G C63A	≤ -4.2
U31C A41G A49G A107U A115C G126U G133U	≤ -4.2
U31C A41G A49G U77C C87A C108U G126U G133U	≤ -4.2
U31C A41G U53A U55A	-0.0378
U31C A47U G88A C108A	≤ -4.2
U31C A49C U90C U109C A119C G143A U144C	≤ -4.2
U31C A52C C54U G59A U78A A106C U151A	≤ -4.2
U31C A52G C54A A106G C129G U144G A147U	≤ -4.2
U31C A121C U134A	-1.76
U31C C32G C72U C93A A107U G141C C149G G152C	≤ -4.2
U31C C32U A60U A66C G81U C96G G100U	≤ -4.2
U31C C35A C93U G100C U127A C129G C149U	≤ -4.2
U31C C36A C96U A150G	≤ -4.2
U31C C54G G83C G94A	≤ -4.2
U31C C54U G71U C96U	-3.79
U31C C69U G86U C96U A142G	-2.99
U31C C76U G84U A142G G143U U146G	≤ -4.2
U31C C85U	0.604
U31C C103G C132A	≤ -4.2
U31C G34C C69U U82G C95A U104A G126A U146C	≤ -4.2
